# Patent US20250145722A1, “ANTI-GAL3 ANTIBODIES AND METHODS OF USE” (TrueBinding, Inc., priority 2020, published 2025)
# Legend:
# [1] = Brain penetration of biotinylated anti-GAL3 antibodies in GL261-LUC glioma mice (ELISA of plasma and brain lysates); format: in vivo, Albino C57BL6 mice; conditions: biotinylated antibody 10 mg/kg i.v.; four days later; FIG. 34A-C
# Source text: To validate ability of anti-GAL3 antibodies to penetrate tumor tissue, 7-week old Albino C57BL6 mice (The Jackson laboratory) were orthotopically transplanted with murine glioma cells GL261 that stably express firefly luciferase gene (GL261-LUC).
# To generate GL261-LUC cells, GL261 murine glioblastoma cell line (DSMZ, no. ACC 802) was transduced with pLL-CMV-Luciferase-T2A-Puro Lenti-Labeler™ Pre-packaged Virus (SBI, catalog No. LL150VA-1) employing transduction reagent (TransDux MAX Transduction reagent, SBI, catalog No. LV860A-1) according to the manufacturer's instructions. […]
# To generate biotinylated anti-GAL3 antibodies, biotinylation was performed with (EZ-Link™ NHS-PEG4-Biotin, No-Weigh™ Format, ThermoFisher Scientific, A39259) using the manufacturer's protocol. […] The final concentrations of biotinylated samples were calculated based on their UV absorption at 280 nm.
# GL261-LUC (5×10^5) were transplanted into the forebrain of the recipient animals (1 mm posterior of bregma, 2 mm lateral of midline and 3.5 mm deep, employing a stereotaxic frame (Stoelting, 51725D)). Implantation was confirmed using imaging of tumor luminescence. […] When bioluminescence flux detected in brains of injected animals reached 106 photons/second, the animals were injected i.v. with biotinylated anti-GAL3 antibodies (10 mg/kg). […]
# GL261-LUC brain tumor = assay: PARP Western blot of brain tumor lysates; format: in vivo, Albino C57BL6 mice; conditions: PARP normalized to GAPDH; <1 indicates increased apoptotic activity; FIG. 34D-E
# Protocol: GL261-LUC (5×10^5) were transplanted into the forebrain of the recipient animals (1 mm posterior of bregma, 2 mm lateral of midline and 3.5 mm deep, employing a stereotaxic frame (Stoelting, 51725D)). Implantation was confirmed using imaging of tumor luminescence. Briefly, luminescent images were obtained 10 min after injection with XenoLight D-Luciferin-K+ Salt Bioluminescent Substrate (Perkin Elmer, cat #122799, prepared according to manufacturer protocol) using an IVIS-Spectrum CT Imaging System (PerkinElmer). When bioluminescence flux detected in brains of injected animals reached 106 photons/second, the animals were injected i.v. with biotinylated anti-GAL3 antibodies (10 mg/kg). Four days later, the animals were sacrificed, and blood and brain tissue samples were collected.
# To determine the biological activity of antibodies in brain tissue, the levels of antibody-induced apoptosis was analyzed in tumor samples. Brain tumor lysates were probed for the marker of cell death PARP on a Western blot. […] Finally, protein was detected by adding Supersignal West Pico Chemiluminescent substrate (Thermo-Fisher, 34579) to the membrane for 1 minute and imaged using Azure Biosystem c400. […]
# Images were imported in ImageJ software and the signal intensity in each sample was quantified as a measure of protein quantity. […]
# [2] = molecular target: T1, Gal3-induced Aβ42 oligomers (Homo sapiens, UniProt P17931); assay: Disruption of Gal3-induced Aβ42 oligomers (dot blot, A11/6E10); format: biochemical; conditions: hGal3-65-250 isoform-induced Aβ-42 oligomers; within 1 hour; FIG. 63D
# T1 construct: The anti-Gal3 antibodies were incubated with hGal3-65-250 isoform-induced Aβ-42 oligomers; made in house
# T1 sequence (P17931 65-250): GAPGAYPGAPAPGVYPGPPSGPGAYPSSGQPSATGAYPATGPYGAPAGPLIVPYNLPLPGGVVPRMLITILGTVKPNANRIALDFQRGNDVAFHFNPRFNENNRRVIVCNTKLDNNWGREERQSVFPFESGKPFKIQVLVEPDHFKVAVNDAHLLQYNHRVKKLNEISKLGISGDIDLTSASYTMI
# [3] = molecular target: Gal3-APP695 (APP isoform 695) (Homo sapiens, UniProt P17931); assay: Gal3-APP695 blocking; format: binding; conditions: as restated
# Chain of Gal3-APP695 (APP isoform 695) (P17931 2-250 limits assumed): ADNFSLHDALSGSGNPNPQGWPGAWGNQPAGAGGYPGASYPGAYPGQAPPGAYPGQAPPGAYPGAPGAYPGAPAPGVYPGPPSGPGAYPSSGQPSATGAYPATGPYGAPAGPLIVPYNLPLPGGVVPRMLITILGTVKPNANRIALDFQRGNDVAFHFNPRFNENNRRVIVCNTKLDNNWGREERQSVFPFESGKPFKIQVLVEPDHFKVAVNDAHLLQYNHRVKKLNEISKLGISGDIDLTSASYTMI
blocking of Gal3-APP695 [3] [%],Molecule,activity in penetrating the blood brain barrier (BBB) [1],levels of PARP in tumor compared to control samples (GL261-LUC brain tumor),inhibition of Aβ-42 oligomer formation [2]
–,846C.1B2: anti-Gal3 antibody (antibody) heavy: QIQLVQSGPELKKPGETVKISCKASGYTFTNYGMNWVKQAPGKGLKWMGWINTYTGEPSYADDFKGRFAFSLETSASTAYLQINNLKNEDMATYFCARWGGYAGDYYAMDFWGQGTSVTVSSASTKGPSVFPLAPCSRSTSESTAALGCLVKDYFPEPVTVSWNSGALTSGVHTFPAVLQSSGLYSLSSVVTVPSSSLGTKTYTCNVDHKPSNTKVDKRV[letters of human IgG4 Fc with S228P (EU numbers) omitted] light: NIWLTQSPSSLAVSAGEMVTMTCKSSQSVLYSSNQKNYLAWYQQKPGQSPKLLIYWASTRESGVPDRFTGSGSGTDFSLTISSVQAEDLAVYYCHQYLSSLTFGAGTKLELKRTVAAPSVFIFPPSDEQLKSGTASVVCLLNNFYPREAKVQWKVDNALQSGNSQESVTEQDSKDSTYSLSSTLTLSKADYEKHKVYACEVTHQGLSSPVTKSFNRGEC,higher penetrance than the rest of the tested clones,reduced levels of PARP,significant inhibition
–,846.1H12: anti-Gal3 antibody (antibody) heavy: QIQLVQSGPELKKPGETVKISCKASGYTFTNFGMNWVKQAPGKGLKWMGWINTYTGEPSYADDFKGRFAFSLETSASTAYLQINNLKNEDIATYFCARWGGYAGDYYAMDYWGQGTSVTVSSASTKGPSVFPLAPCSRSTSESTAALGCLVKDYFPEPVTVSWNSGALTSGVHTFPAVLQSSGLYSLSSVVTVPSSSLGTKTYTCNVDHKPSNTKVDKRV[letters of human IgG4 Fc with S228P (EU numbers) omitted] light: NIMMTQSPSSLAVSAGQKVTMSCKSSQSVLYSSSQKNYLAWYQQKPGQSPKLLIYWASTRESGVPDRFSGSGSGTDFTLTISSVQPEDLAVYYCHQYLSSLTFGAGTKLELKRTVAAPSVFIFPPSDEQLKSGTASVVCLLNNFYPREAKVQWKVDNALQSGNSQESVTEQDSKDSTYSLSSTLTLSKADYEKHKVYACEVTHQGLSSPVTKSFNRGEC,higher penetrance than the rest of the tested clones,–,–
87,847C.11B1: anti-Gal3 antibody (antibody) heavy: EVQLQQSGPELVKPGASVKISCKASGNTFTDHNMHWVKQSHGKSLEWIGYIYPYNGGTGYNQKFKSKATLTVDNSSSTVYMELRSLTSEDSAVYYCARGEYDYLAWFAYWGQGTLVTVSAASTKGPSVFPLAPCSRSTSESTAALGCLVKDYFPEPVTVSWNSGALTSGVHTFPAVLQSSGLYSLSSVVTVPSSSLGTKTYTCNVDHKPSNTKVDKRV[letters of human IgG4 Fc with S228P (EU numbers) omitted] light: EIVLTQSPASLSVTTGEKVTIRCITSIDIDDDMNWYQQKPGEPPKLLISEGNTLRPGVPSRFSSSGYGTDFVFTIENTLSEDVADYYCLQSDNKPLTFGAGTKLELKRTVAAPSVFIFPPSDEQLKSGTASVVCLLNNFYPREAKVQWKVDNALQSGNSQESVTEQDSKDSTYSLSSTLTLSKADYEKHKVYACEVTHQGLSSPVTKSFNRGEC,–,–,–
–,846T.14A2: anti-Gal3 antibody (antibody) heavy: QIQLVQSGPELKKPGETVKISCKASGYTFTNYGMNWVKQAPGKGLKWMGWINTYTGEPTYAGDLKGRFAFSLETSASTAYLQINNLKNEDTATYFCVRYTMDYWGQGTSVTVSSASTKGPSVFPLAPCSRSTSESTAALGCLVKDYFPEPVTVSWNSGALTSGVHTFPAVLQSSGLYSLSSVVTVPSSSLGTKTYTCNVDHKPSNTKVDKRV[letters of human IgG4 Fc with S228P (EU numbers) omitted] light: QAVVTQESALTTSPGETVTLTCRSSTGAVTTSNYANWVQEKPDHLFTGLIGGINNRVPGVPARFSGSLIGDKAALTITGAQTEDEAIYFCALWYSNHWVFGGGTKLTVLRTVAAPSVFIFPPSDEQLKSGTASVVCLLNNFYPREAKVQWKVDNALQSGNSQESVTEQDSKDSTYSLSSTLTLSKADYEKHKVYACEVTHQGLSSPVTKSFNRGEC,–,–,significant inhibition
–,846TC.14E4: anti-Gal3 antibody (antibody) heavy: QVTLKESGPGILQPSQTLSLTCSFSGFSLSTSGMGVGWIRQPSGKGLEWLAHIWWDDDKYYNTALKSGLTISKDASKNQVFLKIASMDTADTATYYCARNLYDGSYGYYAMDYWGQGTSVTVSSASTKGPSVFPLAPCSRSTSESTAALGCLVKDYFPEPVTVSWNSGALTSGVHTFPAVLQSSGLYSLSSVVTVPSSSLGTKTYTCNVDHKPSNTKVDKRV[letters of human IgG4 Fc with S228P (EU numbers) omitted] light: DIVMTQAAFSNPVTLGTSASISCRSSKSLLHTNGITFLYWYLQKPGQSPQPLIYQMSNLASGVPDRFSSSGSGTDFTLRISRVEAEDVGVYYCAQNLELPWTFGGGTKLEINRTVAAPSVFIFPPSDEQLKSGTASVVCLLNNFYPREAKVQWKVDNALQSGNSQESVTEQDSKDSTYSLSSTLTLSKADYEKHKVYACEVTHQGLSSPVTKSFNRGEC,–,–,significant inhibition
